Assay results reported in US10457961B2, “Chimeric proteins and methods of regulating gene expression” (The Board of Trustees of the Leland Stanford Junior …, priority 2016, dated 2019).

Test system: GFP reporter
Experiment: GFP reporter activation by chimeric GPCR-dCas9-VPR receptors in HEK293T cells
Assay type: cell-based, human
Conditions: sgRNA and β2-arrestin-protease; presence of ligand (LPA, SDF1, or CNO) compared to absence of ligand
Source text: The released dCas9-VPR was then targeted by sgRNA to a target polynucleotide to alter expression levels of a GFP reporter.

B1: LPAR1-dCas9-VPR: chimeric LPAR1 GPCR fused to dCas9-VPR via TEV cleavage site (protein)
chain: MAAISTSIPVISQPQFTAMNEPQCFYNESIAFFYNRSGKHLATEWNTVSKLVMGLGITVCIFIMLANLLVMVAIYVNRRFHFPIYYLMANLAAADFFAGLAYFYLMFNTGPNTRRLTVSTWLLRQGLIDTSLTASVANLLAIAIERHITVFRMQLHTRMSNRRVVVVIVVIWTMAIVMGAIPSVGWNCICDIENCSNMAPLYSDSYLVFWAIFNLVTFVVMVVLYAHIFGYVRQRTMRMSRHSSGPRRNRDTMMSLLKTVVIVLGAFIICWTPGLVLLLLDVCCPQCDVLAYEKFFLLLAEFNSAMNPIIYSYRDKEMSATFRQILCCQRSENPTGPTEGSDRSASSLNHTILAGVHSNDHSVV
modifications: left off: small tags and cut ends
notes: chimeric LPAR1 GPCR fused to dCas9-VPR via TEV cleavage site
levels of GFP reporter protein: increased levels of GFP reporter protein
